Data: PubChem BioAssay (NCI)
Several values for one entry are separate records, joined by “and”; a condition that tells them apart may be missing. Equal entries are not always repeated.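 All cell lines were grown in 96-well plates and treated with compound for 48 hours. Here, GI50 denotes the concentration required for 50% inhibition of growth. At the TGI there is no net growth.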

The molecules below were run on NCI-H322M lung (assay: inhibition of tumour cell growth, NCI panel, 48 h).
Molecule CC12OC(C(=O)C13CCC3)C1C(=O)c3ccccc3C(=O)C12 (stereo unspecified) has a GI50 greater than 100 µM and a TGI greater than 100 µM. COc1cc([C@H]2c3[nH]c4ccccc4c3C[C@H]3COC(=O)N32)cc(OC)c1O gave a TGI greater than 100 µM. C/C(=N/O)c1ccc2c(c1)C(=NO)c1cc(/C(C)=N/O)ccc1-2 showed a TGI of 31.3 µM. O=c1oc2ccc(F)cc2c(=O)n1-c1ccc(Br)cc1F showed a GI50 of 0.434 µM and a TGI of 24.5 µM. For CC(C)(C)c1cc(CCC(=O)Nc2ccc(Cl)cc2Cl)nc(N)n1, the TGI was greater than 100 µM. For C=C(CNCCc1ccc(O)cc1)[C@@H]1CC[C@]2(CO)CC[C@]3(C)[C@H](CC[C@@H]4[C@@]5(C)CCC(N)C(C)(C)[C@@H]5CC[C@]43C)[C@@H]12 (stereo partly specified), the GI50 was 1.61 µM and the TGI was 3.02 µM. Molecule CCOC(=O)c1nc2ccccc2nc1NCc1ccc(Cl)cc1Cl has a TGI greater than 100 µM. COc1ccc2c(c1)nc1n2C(c2ccc(F)cc2)SC1 (stereo unspecified) was tested, and the GI50 was 23.3 µM and the TGI was greater than 100 µM. With Cn1cc(CO)c2ccccc21 the GI50 was 90.8 µM and the TGI was greater than 100 µM. Molecule Cn1cnc([N+](=O)[O-])c1Sc1nc(N)nc2nc[nH]c12 has a GI50 of 13.5 µM and a TGI greater than 100 µM. Cc1cc2n([O-])cccc-2[n+](=O)c1 showed a TGI greater than 100 µM. Molecule Cc1cc(=O)[nH]c(NNC(C#N)c2ccc([N+](=O)[O-])cc2)n1 (stereo unspecified) has a TGI greater than 100 µM. Molecule COC(=O)C(NC(=O)CSc1nnc(COc2ccc(Cl)cc2)n1-c1ccccc1)C(C)C (stereo unspecified) has a TGI of 60.6 µM. Nc1c(N=Nc2ccc(-c3ccc(N=Nc4c(O)ccc5cc(S(=O)(=O)O)cc(S(=O)(=O)O)c45)cc3)cc2)c(S(=O)(=O)O)cc2cc(S(=O)(=O)O)c(N=Nc3ccccc3)c(O)c12 gave a TGI greater than 100 µM. Work on COc1ccc(-c2nc3c(c(=O)n2C(C)=O)C(c2ccc(Cl)cc2)c2sc4c(Cl)cccc4c2O3)cc1 (stereo unspecified) yielded a GI50 of 0.717 µM and a TGI of 3.31 µM. CC1(C)CCC2(C(=O)OC3OC(CO)C(O)C(O)C3O)CCC3(CO)C(=CCC4C5(C)CC(O)C(O)C(C)(C(=O)OC6OC(CO)C(O)C(O)C6O)C5CCC43C)C2C1 (stereo unspecified) was tested, and the TGI was greater than 100 µM. Cc1ccc(/C=C2\CNC/C(=C\c3ccc(C)cc3)C2=O)cc1 was tested, and the GI50 was 1.62 µM and the TGI was 3.41 µM and 14.4 µM. For CC1(C)[C@@H]2CC[C@@]1(C)[C@H](O)[C@@H]2SCc1ccccc1, the TGI was 38.5 µM. Work on O=C(O)C1C2C=CC(O2)C1C(=O)Nc1ncccn1 (stereo unspecified) yielded a TGI greater than 100 µM. O=C1CSC2(CC(/C=C/c3ccccc3Br)=NN2c2cccc(S(=O)(=O)O)c2)N1c1nc2ccccc2s1 (stereo unspecified) was tested, and the TGI was greater than 100 µM. In the case of CC(C)(C)CC(C)(C)c1ccc(OCCOCC[N+](C)(C)Cc2ccccc2)cc1, the TGI is reported as 24.4 µM. For CC[C@@]1(O)C(=O)OCc2c1cc1n(c2=O)Cc2cc3c(N)cccc3nc2-1, the TGI was 9.09 µM. COc1cc2cc(C(=O)N3CC(CCl)c4c3cc([N+](C)(C)Cc3ccc([N+](=O)[O-])n3C)c3ccccc43)[nH]c2c(OC)c1OC (stereo unspecified) showed a TGI of 7.09 µM. C[C@@]12CCCC(=O)N1[C@@H](CO)C(c1ccccc1)O2 (stereo partly specified) was tested, and the TGI was greater than 100 µM. Cc1cc2occ(-c3ccc(Cl)cc3)c2c(=O)o1 gave a TGI greater than 100 µM. For CC1=C(C(=O)CC(=O)C(=O)NC2C3CC4CC(C3)CC2C4)Sc2ccccc2N1 (stereo unspecified), the TGI was greater than 100 µM. COc1ccc(-c2cc(/C=C/C(=O)c3cc(OC)c(OC)c(OC)c3)[nH]n2)cc1OC showed a GI50 of 2.02 µM and a TGI of 6.04 µM. Work on O=C(O)Cn1ccnc1[N+](=O)[O-] yielded a TGI greater than 100 µM. Molecule O=C(/C=C/c1ccco1)c1cccc(C(=O)/C=C/c2ccco2)n1 has a TGI greater than 100 µM. Molecule c1ccc(OCCSCCCCCCCCCCSCCOc2ccccc2)cc1 has a TGI greater than 100 µM. In the case of CC1(C)COC(c2c(-c3ccccc3)noc2CS(=O)c2ccccc2)=N1 (stereo unspecified), the TGI is reported as greater than 100 µM. With COc1ccc(C=Nc2ccc(-c3nc4ccccc4[nH]3)cc2)cc1OC the TGI was greater than 100 µM. For O=C1C=C(N2CCN(c3ccccn3)CC2)C(=O)c2c(O)ccc(O)c21, the TGI was 42.7 µM. COc1ccc(C2NCCc3c2[nH]c2ccccc32)cc1 (stereo unspecified) showed a TGI greater than 100 µM. CNc1ccc(S(=O)Nc2ccccc2)cc1 (stereo unspecified) gave a TGI greater than 100 µM. O=C(Nc1cc(S(=O)(=O)c2ccc(Cl)cc2)ccc1Cl)c1cc(I)cc(I)c1O was tested, and the GI50 was 15.9 µM and the TGI was 29.4 µM. N#CCCC1(CCC#N)CCCCCCC(CCC#N)(CCC#N)C(O)C1O (stereo unspecified) was tested, and the TGI was greater than 100 µM. In the case of C1=C2CNCC3=Cc4ccc5ccccc5c4OC23Oc2c1ccc1ccccc21, the GI50 is reported as 10.8 µM and the TGI is reported as 32.9 µM. In the case of Cc1c2cccc-2ccc2c1[nH]c1ccccc12, the TGI is reported as 16.5 µM. CC[C@H](C)[C@H](NC(=O)[C@H]1CCCCN1C)C(=O)N(C)[C@H](C[C@@H](OC(C)=O)c1nc(C(=O)N[C@@H](Cc2ccccc2)C[C@H](C)C(=O)OC)cs1)C(C)C gave a GI50 of 0.000644 µM. For CC(=O)Oc1ccc(C2(c3ccc(OC(C)=O)cc3)C(=O)Nc3ccccc32)cc1, the GI50 was 1.24 µM and 0.699 µM and the TGI was greater than 100 µM. For O=[N+]([O-])c1ccc(NS(=O)(=O)C(F)(F)F)cc1, the TGI was greater than 100 µM. Work on CC(=O)Nc1ccc(C(=O)N2N=C(C)/C(=C/c3ccc(O)cc3)C2=O)cc1 yielded a TGI greater than 100 µM. With O=c1oc2ccc(Cl)cc2cc1-c1cn2ccsc2n1 the TGI was greater than 100 µM. For O=P(O)(O)CN1CCNCCN(CP(=O)(O)O)CCNCC1, the TGI was greater than 100 µM. In the case of O=C(OCc1ccccc1C1CSCSC1)c1cc(C(=O)OCc2ccccc2C2CSCSC2)c(C(=O)OCc2ccccc2C2CSCSC2)cc1C(=O)OCc1ccccc1C1CSCSC1, the TGI is reported as greater than 100 µM. Work on CC(C)C1CC(CO)(CNc2cc(Cl)nc(N)n2)C1 (stereo unspecified) yielded a TGI greater than 100 µM. Molecule CCOC(=O)C[C@@]12CCCNC1(C)CCc1ccccc12 (stereo partly specified) has a TGI greater than 100 µM. Work on C/C(=C\Cc1cc(O)ccc1O)CCc1c(C)cc(O)c(C=O)c1C yielded a TGI of 92.1 µM.
